Some of the results follow.
What was measured:
Test in all cases: glycan array binding signal (z-score within array); higher = stronger binding
Details in all cases: glycan notation: IUPAC condensed, linker removed
Fuc(a1-2)Gal = target: Fuc(a1-2)Gal
In short: (§1)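 The Consortium for Functional Glycomics database supplied 3228 glycan arrays, of which those lacking an available protein sequence were dropped. The binding signal, a within-array Z-score, was averaged across arrays of the same protein sequence and across linkers. Negative scores can be read as non-binding.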

Fuc(a1-2)Gal(b1-3)GalNAc = target: Fuc(a1-2)Gal(b1-3)GalNAc
In short: as §1

[1] = target: Fuc(a1-2)Gal(b1-3)GalNAc(a1-3)[Fuc(a1-2)]Gal(b1-4)Glc
In short: as §1

[2] = target: Fuc(a1-2)Gal(b1-3)GalNAc(a1-3)[Fuc(a1-2)]Gal(b1-4)GlcNAc
In short: as §1

[3] = target: Fuc(a1-2)Gal(b1-3)GalNAc(b1-3)Gal
In short: as §1

[4] = target: Fuc(a1-2)Gal(b1-3)GalNAc(b1-3)Gal(a1-4)Gal(b1-4)Glc
In short: as §1

[5] = target: Fuc(a1-2)Gal(b1-3)GalNAc(b1-4)[Neu5Ac(a2-3)]Gal(b1-4)Glc
In short: as §1

Fuc(a1-2)Gal(b1-3)GlcNAc = target: Fuc(a1-2)Gal(b1-3)GlcNAc
In short: as §1

[6] = target: Fuc(a1-2)Gal(b1-3)GlcNAc(b1-2)Man(a1-3)[Fuc(a1-2)Gal(b1-3)GlcNAc(b1-2)Man(a1-6)]Man(b1-4)GlcNAc(b1-4)GlcNAc
In short: as §1

[7] = target: Fuc(a1-2)Gal(b1-3)GlcNAc(b1-2)Man(a1-3)[Fuc(a1-2)Gal(b1-3)GlcNAc(b1-2)Man(a1-6)]Man(b1-4)GlcNAc(b1-4)[Fuc(a1-6)]GlcNAc
In short: as §1

[8] = target: Fuc(a1-2)Gal(b1-3)GlcNAc(b1-3)Gal(b1-4)Glc
In short: as §1

[9] = target: Fuc(a1-2)Gal(b1-3)GlcNAc(b1-3)GalNAc
In short: as §1

[10] = target: Fuc(a1-2)Gal(b1-3)GlcNAc(b1-3)[Fuc(a1-3)[Gal(b1-4)]GlcNAc(b1-6)]Gal(b1-4)Glc
In short: as §1

[11] = target: Fuc(a1-2)Gal(b1-3)GlcNAc(b1-3)[Gal(b1-4)GlcNAc(b1-6)]Gal(b1-4)Glc
In short: as §1

[12] = target: Fuc(a1-2)Gal(b1-3)GlcNAc(b1-3)[Neu5Ac(a2-6)Gal(b1-4)GlcNAc(b1-6)]Gal(b1-4)Glc
In short: as §1

[13] = target: Fuc(a1-2)Gal(b1-3)[Fuc(a1-4)]GlcNAc
In short: as §1

[14] = target: Fuc(a1-2)Gal(b1-3)[Fuc(a1-4)]GlcNAc(b1-2)Man(a1-3)[Fuc(a1-2)Gal(b1-3)[Fuc(a1-4)]GlcNAc(b1-2)Man(a1-6)]Man(b1-4)GlcNAc(b1-4)GlcNAc
In short: as §1

[15] = target: Fuc(a1-2)Gal(b1-3)[Fuc(a1-4)]GlcNAc(b1-3)[Fuc(a1-3)[Gal(b1-4)]GlcNAc(b1-6)]Gal(b1-4)Glc
In short: as §1

[16] = target: Fuc(a1-2)Gal(b1-3)[Fuc(a1-4)]GlcNAc(b1-3)[Gal(b1-4)GlcNAc(b1-6)]Gal(b1-4)Glc
In short: as §1

Fuc(a1-2)Gal(b1-4)Glc = target: Fuc(a1-2)Gal(b1-4)Glc
In short: as §1

Fuc(a1-2)Gal(b1-4)Glc6S = target: Fuc(a1-2)Gal(b1-4)Glc6S
In short: as §1

Fuc(a1-2)Gal(b1-4)GlcNAc = target: Fuc(a1-2)Gal(b1-4)GlcNAc
In short: as §1

[17] = target: Fuc(a1-2)Gal(b1-4)GlcNAc(b1-2)Man(a1-3)[Fuc(a1-2)Gal(b1-4)GlcNAc(b1-2)Man(a1-6)]Man(b1-4)GlcNAc(b1-4)GlcNAc
In short: as §1

[18] = target: Fuc(a1-2)Gal(b1-4)GlcNAc(b1-2)Man(a1-3)[Fuc(a1-2)Gal(b1-4)GlcNAc(b1-2)Man(a1-6)]Man(b1-4)GlcNAc(b1-4)[Fuc(a1-6)]GlcNAc
In short: as §1

[19] = target: Fuc(a1-2)Gal(b1-4)GlcNAc(b1-2)[Fuc(a1-2)Gal(b1-4)GlcNAc(b1-4)]Man(a1-3)[Fuc(a1-2)Gal(b1-4)GlcNAc(b1-2)Man(a1-6)]Man(b1-4)GlcNAc(b1-4)GlcNAc
In short: as §1

[20] = target: Fuc(a1-2)Gal(b1-4)GlcNAc(b1-3)Gal(b1-4)GlcNAc
In short: as §1

[21] = target: Fuc(a1-2)Gal(b1-4)GlcNAc(b1-3)Gal(b1-4)GlcNAc(b1-3)Gal(b1-4)GlcNAc
In short: as §1

[22] = target: Fuc(a1-2)Gal(b1-4)GlcNAc(b1-3)GalNAc
In short: as §1

[23] = target: Fuc(a1-2)Gal(b1-4)GlcNAc(b1-3)[Fuc(a1-2)Gal(b1-4)GlcNAc(b1-6)]GalNAc
In short: as §1

[24] = target: Fuc(a1-2)Gal(b1-4)GlcNAc6S
In short: as §1

B1: CV-2L (Chromobacterium violaceum), Q7NX84 (protein)
chain: MAQQGVFTLPARINFGVTVLVNSAATQHVEIFVDNEPRAAFSGVGTGDNNLGTKVINSGSGNVRVQITANGRQSDLVSSQLVLANKLNLAVVGSEDGTDMDYNDSIVILNWPLG
glycan array binding signal (z-score) (Fuc(a1-2)Gal): 3.99
glycan array binding signal (z-score) (Fuc(a1-2)Gal(b1-3)GalNAc): 0.156
glycan array binding signal (z-score) [1]: 1.07
glycan array binding signal (z-score) [2]: 0.322
glycan array binding signal (z-score) [3]: -0.03
glycan array binding signal (z-score) [4]: 2.56
glycan array binding signal (z-score) [5]: 0.162
glycan array binding signal (z-score) (Fuc(a1-2)Gal(b1-3)GlcNAc): 2.22
glycan array binding signal (z-score) [6]: 4.01
glycan array binding signal (z-score) [7]: 0.729
glycan array binding signal (z-score) [8]: 2.45
glycan array binding signal (z-score) [9]: 1.9
glycan array binding signal (z-score) [10]: 1.36
glycan array binding signal (z-score) [11]: 2.83
glycan array binding signal (z-score) [12]: 2.61
glycan array binding signal (z-score) [13]: 0.884
glycan array binding signal (z-score) [14]: -0.198
glycan array binding signal (z-score) [15]: 0.473
glycan array binding signal (z-score) [16]: 0.422
glycan array binding signal (z-score) (Fuc(a1-2)Gal(b1-4)Glc): 3.31
glycan array binding signal (z-score) (Fuc(a1-2)Gal(b1-4)Glc6S): 4.43
glycan array binding signal (z-score) (Fuc(a1-2)Gal(b1-4)GlcNAc): 5.39
glycan array binding signal (z-score) [17]: 5.17
glycan array binding signal (z-score) [18]: 1.05
glycan array binding signal (z-score) [19]: 1.84
glycan array binding signal (z-score) [20]: 5.68
glycan array binding signal (z-score) [21]: 5.57
glycan array binding signal (z-score) [22]: 0.745
glycan array binding signal (z-score) [23]: 5.71
glycan array binding signal (z-score) [24]: 5.42
